Measurements: PubChem BioAssay AID652104 (National Center for Advancing Translational Sciences (NCATS), 2013)
The whole screen tested about 410,000 compounds, of which about 7,200 (1.8%) were called active. The shares of active, inactive and inconclusive entries below differ from those in the screen. The call rests on the fitted dose curve; in most records, active means well fitted activation curve with a large enough effect; inconclusive means small, poorly fitted or top-dose-only effect, or another doubt; inactive means no such curve, though single readings can be large or run the other way. Potencies of inconclusive entries are left out as doubtful fits.

Assay: qHTS of TDP-43 Inhibitors; further: nearly all actives have a fitted effect of over 50% in size; on growth rescue (activation): % of control where 0% means no effect
Settings: TDP-43 expressing yeast growth rescue, BacTiter-Glo, 24 h; growth rescue (activation): at 46.1 µM (top of the series) unless noted
Summary of the method: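 Readout is BacTiter-Glo luminescence of cell growth, so inhibitors register as activators. TDP-43-expressing yeast at OD600=0.02 in galactose medium, after raffinose pregrowth to mid-log, were incubated with compound for 24 hr at 30 deg C.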
Potency means the concentration at half of the fitted maximal effect; tags describe the fitted curve by direction and shape.

SMILES	growth rescue (activation)	Potency
CC(C)(C=O)C1=CC(=O)c2ccccc2C1=O	inconclusive: -92.1% [activator]	–
Cc1cccc(NC(=O)C2c3ccccc3Oc3ccccc32)n1	–	inconclusive [activator, single point]
O=C(/C=C/c1ccc(F)cc1)c1ccccc1Br	–	active: 15.8 µM
CC1CCCCN1C(=O)c1cc2nc(-c3ccccc3)cc(-c3ccccc3)n2n1 (stereo not given)	–	inconclusive [activator, single point]
CCOC(=O)N(C)c1ccc(C(O)(C(F)(F)F)C(F)(F)F)cc1	–	inactive
O=C(CSc1ccc([N+](=O)[O-])cn1)Nc1cc(C(F)(F)F)ccc1N1CCOCC1	–	active: 20 µM
CC(C)Oc1ccccc1NC(=O)CSc1nc2ccccc2c(=O)n1C	–	inconclusive [activator, single point]
O=C(CSc1nnc(-c2ccccc2Br)o1)N1CCc2ccccc2C1	–	inconclusive [activator, single point]
CCOC(=O)CCNC(=O)N1CCCC(C(=O)c2cccc(Cl)c2)C1 (stereo not given)	–	inconclusive [activator, partial curve, poor fit]
O=C(CCc1ccccc1)NNC(=S)NC(=O)c1ccccc1	–	inconclusive [activator, single point]
Cn1c(C(=O)Nc2cccc(C(F)(F)F)c2)cc2c(=O)n3ccccc3nc21	–	inactive
COc1ccc([C@H]2CC(=O)C=C(/C=C/Cc3ccccc3)C2)cc1	–	inconclusive [activator, single point]
CN(c1ccccc1C(=O)Nc1ccc2c(c1)n(C)c(=O)n2C)S(C)(=O)=O	–	inactive
CCc1ccc(C(=O)c2cn(CC(=O)Nc3ccc4c(c3)OCO4)c3ccc(OC)cc3c2=O)cc1	–	inactive
O=[N+]([O-])c1cc([N+](=O)[O-])c(Oc2cccc3ccccc23)cc1NN1CCCCC1	–	inconclusive [activator, partial curve]
COc1ccc(N2CC(O)=C(c3nc4ccccc4s3)C2=N)c(OC)c1	–	inconclusive [activator, full curve]
CCOC(=O)C1CCCN(C(=O)c2ccc(-c3ccc([N+](=O)[O-])cc3)o2)C1 (stereo not given)	–	inconclusive [activator, single point]
Cc1cccc(NC(=O)CSc2nccn2Cc2ccc(F)cc2)c1C	–	inconclusive [activator, single point]
Cc1ccc(C)c(N2CCN(C(=O)C34CC5CC(C3)CC(n3nnc(C)n3)(C5)C4)CC2)c1	–	inconclusive [activator, single point]
CCC(=O)Nc1ccc(SC#N)cc1C	–	active: 11.2 µM
O=C(/C=C/c1ccccc1)NC(=S)NNC(=O)c1cccnc1	–	active: 15.8 µM
CN(C)CCNc1ncnc2c1ncn2[C@H]1CN(CCc2ccccc2)C[C@@H](CO)O1	–	inconclusive [activator, partial curve]
CC12CC3CC(C)(C1)CC(C(=O)NC(=S)N1CCCCC1)(C3)C2	–	inconclusive [activator, single point]

SMILES	growth rescue (activation)	Potency
Cc1ccc(/C(N)=N/OC(=O)CCC2CCCC2)cc1	–	inconclusive [activator, single point]
COc1ccc(/C(N)=N/OC(=O)c2ccc3c(c2)OCO3)cc1OC	–	inconclusive [activator, single point]
Cc1ccc(C(=O)NC(=S)NCc2ccccc2)cc1Br	–	inconclusive [activator, partial curve]
O=C(NCc1ccco1)c1cccc2c(-c3ccc(F)c(F)c3)coc12	–	active: 14.1 µM
FC(F)(F)c1cc(Cl)c2nc(-c3ccco3)c(Cc3ccccc3C(F)(F)F)n2c1	–	inconclusive [activator, partial curve]
O=S(=O)(NCc1ccc(F)cc1)c1ccccc1Br	–	inconclusive [activator, single point]
Cc1c(C#N)c(NC(=O)C(C)C)n(Cc2ccccc2)c1C	–	inactive
CCN(C(=O)c1ccco1)c1nc(-c2ccc(OC)cc2)cs1	–	inconclusive [activator, partial curve, poor fit]
Cc1cccc(CNC(=O)CCn2c(=O)c3cccn3c3ccc(F)cc32)c1	–	inactive
CCN(CC(=O)Nc1ccccc1C(F)(F)F)C(=O)c1ccc2c(c1)NC(=O)C(C)S2 (stereo not given)	–	inactive
Cc1cc(C)c(S(=O)(=O)N2CCN(C(=O)c3cccs3)CC2)c(C)c1	–	inconclusive [activator, single point]
CCn1cnc2scc(-c3ccc(OC)cc3)c2c1=O	–	inconclusive [activator, partial curve]
CC(C)(C)NC(=S)Nc1cccc(C(F)(F)F)c1	–	inconclusive [activator, partial curve]
COc1cc(OC)cc(C2=Cc3ccccc3C(CC(C)=O)N2c2ccc(C#CC3(N)CCCCC3)cc2)c1 (stereo not given)	–	inconclusive [activator, partial curve, poor fit]
O=C(NCc1ccccc1)N1CCC(n2cnc3cc(F)ccc32)CC1	–	inactive
COc1ccc(S(=O)(=O)N2CCCN(CC(=O)Nc3ccc(NC(C)=O)cc3)CC2)cc1	–	inconclusive [activator, partial curve]
O=C(CN1N=C(c2ccc(Cl)cc2)CCC1=O)NCCc1ccc(Cl)cc1	–	active: 22.4 µM
O=C1CC(c2ccccc2)Sc2nc3ccccc3n21 (stereo not given)	–	inconclusive [activator, single point]
CC(C)(C)c1ccc(OCc2ccc(C(=O)NN)o2)cc1	–	inconclusive [activator, partial curve, poor fit]
Cc1ccc(SCc2nc(-c3cccnc3)no2)cc1	–	active: 17.8 µM
COc1ccc(-c2cc(C(F)(F)F)c3c(=O)n(-c4ccccc4)[nH]c3n2)cc1	–	active: 8.91 µM
N#Cc1cccc(C(=O)N(CCc2ccccc2)Cc2cccs2)c1	–	inconclusive [activator, single point]
